Structures can show the parent of a compound that is named as a salt. The list shows a part of the results. Single values are uncertain, as repeats are few or missing.
Tested on: Escherichia coli W3110
Experiment: planktonic growth (OD600) relative to untreated control; higher = more growth
Conditions: 10 µM; 20-24 h; 30 °C; TB
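Further: stationary (unshaken) cultures in 96-well plates, started at OD600 0.05 from mid-exponential cells, with compounds supplied from DMSO stocks.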

SMILES | planktonic growth [%]
C=CC[C@]1(O)CC[C@H]2[C@@H]3CCC4=CC(=O)CCC4=C3C=C[C@@]21C [Altrenogest] | 94
CC(Cc1ccc(O)cc1)NCC(O)c1cc(O)cc(O)c1 (configuration not stated) [Fenoterol hydrobromide] | 102
C1CCc2nnnn2CC1 [Pentylenetetrazole] | 105
CNCC(O)c1ccc(O)cc1 (racemic) [(+,-)-Synephrine] | 107
C[C@]12CC[C@@H](O)C[C@@H]1CC[C@@H]1[C@@H]2CC[C@]2(C)C(=O)CC[C@@H]12 [Androsterone] | 68
COc1ccc2c(c1)[C@]13CCCC[C@@H]1[C@H](C2)N(C)CC3 [Dextromethorphan hydrobromide monohydrate] | 96
S=C(NC1CCCCC1)N1CCC(c2cnc[nH]2)CC1 [Thioperamide maleate] | 105
O=c1[nH]c2ccccc2n1CCCN1CCC(n2c(=O)[nH]c3cc(Cl)ccc32)CC1 [Domperidone] | 95
O=C([O-])c1ccccc1-c1c2cc(Br)c(=O)cc-2oc2[c]([Hg+])c([O-])c(Br)cc12.[Na+].[Na+].[OH-] [Merbromin] | 85
CC(C)[N+](C)(CCC(C(N)=O)(c1ccccc1)c1ccccc1)C(C)C [Isopropamide iodide] | 108
C#C[C@]1(O)CC[C@H]2[C@@H]3CCC4=CC(=O)CC[C@]4(C)[C@H]3CC[C@@]21C [Ethisterone] | 93
CC(C)CC(N(C)C)C1(c2ccc(Cl)cc2)CCC1 (configuration not stated) [Sibutramine hydrochloride] | 88
COc1ccc(CN2CCNCC2)c(OC)c1OC [Trimetazidine dihydrochloride] | 85
C[C@]12CC[C@H]3[C@@H](CCC4=CC(=O)CC[C@@H]43)[C@@H]1CC[C@@H]2O [Nandrolone] | 100
CN[C@@H]1C[C@@H](c2ccc(Cl)c(Cl)c2)c2ccccc21 [Indatraline hydrochloride] | 113
O=[N+]([O-])O[C@@H]1CO[C@H]2[C@@H]1OC[C@@H]2O [Isosorbide mononitrate] | 100
CC(C)N(CCC(C(N)=O)(c1ccccc1)c1ccccn1)C(C)C (configuration not stated) [Disopyramide] | 91
C[C@H](N)[C@H](O)c1ccc(O)c(O)c1 [Levonordefrin] | 92
CC(CCc1ccccc1)NC(C)C(O)c1ccc(O)cc1 (configuration not stated) [Nylidrin] | 94
COc1cccc(C2(O)CCCCC2CN(C)C)c1 (configuration not stated) [Tramadol hydrochloride] | 110
CC(=O)OC1CN2CCC1CC2 (configuration not stated) [Aceclidine Hydrochloride] | 103
C[N+](C)(C)CCCCCCCCCC[N+](C)(C)C [Decamethonium bromide] | 106
CN1C[C@H](C(=O)N[C@]2(C)O[C@@]3(O)[C@@H]4CCCN4C(=O)[C@H](Cc4ccccc4)N3C2=O)C[C@@H]2c3cccc4[nH]cc(c34)C[C@H]21 [Dihydroergotamine tartrate] | 103

SMILES | planktonic growth [%]
C[N+]1(C)[C@@H]2CC[C@H]1C[C@@H](OC(=O)C(CO)c1ccccc1)C2 (some centres not stated) [Methylatropine nitrate] | 92
CCC(=O)O[C@@](Cc1ccccc1)(c1ccccc1)[C@@H](C)CN(C)C [Levopropoxyphene napsylate] | 92
CC[C@@]1(O)C(=O)OCc2c1cc1n(c2=O)Cc2cc3ccccc3nc2-1 [Camptothecine (S,+)] | 96
COc1ccc(CCN)cc1OC [Homoveratrylamine] | 106
CCCN1C[C@H](CSC)C[C@@H]2c3cccc4[nH]cc(c34)C[C@H]21 [Pergolide mesylate] | 93
COc1ccc(C(=O)N2CCCC2=O)cc1 [Aniracetam] | 98
CC[C@@H](C(N)=O)N1CCCC1=O [Levetiracetam] | 107
C[N+]1(C)CCOC(O)(c2ccc(-c3ccc(C4(O)C[N+](C)(C)CCO4)cc3)cc2)C1 (configuration not stated) [Hemicholinium bromide] | 98
CC[C@H](C)[C@H]1O[C@]2(C=C[C@@H]1C)C[C@@H]1C[C@@H](C/C=C(\C)[C@@H](O[C@H]3C[C@H](OC)[C@@H](O[C@H]4C[C@H](OC)[C@@H](O)[C@H](C)O4)[C@H](C)O3)[C@@H](C)/C=C/C=C3\CO[C@@H]4[C@H](O)C(C)=C[C@@H](C(=O)O1)[C@]34O)O2.CO[C@H]1C[C@H](O[C@H]2[C@H](C)O[C@@H](O[C@@H]3/C(C)=C/C[C@@H]4C[C@@H](C[C@]5(C=C[C@H](C)[C@@H](C(C)C)O5)O4)OC(=O)[C@@H]4C=C(C)[C@@H](O)[C@H]5OC/C(=C\C=C\[C@@H]3C)[C@]54O)C[C@@H]2OC)O[C@@H](C)[C@@H]1O [Avermectin B1] | 97
C[C@]12CCC(=O)C=C1CC[C@@H]1[C@@H]2C(=O)C[C@]2(C)C(=O)CC[C@@H]12 [Adrenosterone] | 89
CCN[C@@H](C)Cc1cccc(C(F)(F)F)c1 [Dexfenfluramine hydrochloride] | 107
CN1[C@@H]2CC[C@H]1C[C@@H](OC1c3ccccc3CCc3ccccc31)C2 [Deptropine citrate] | 90
NCC(O)c1ccc(O)cc1 (racemic) [(+,-)-Octopamine hydrochloride] | 97
CN(C)C(=O)Oc1cc(OC(=O)N(C)C)cc(C(O)CNC(C)(C)C)c1 (configuration not stated) [Bambuterol hydrochloride] | 110
CCn1cc(C(=O)O)c(=O)c2cc3c(cc21)OCO3 [Oxolinic acid] | 28
C[C@]12CC[C@H](O)C[C@@H]1CC[C@@H]1[C@@H]2CC[C@]2(C)C(=O)CC[C@@H]12 [Epiandrosterone] | 104
CCC1(c2ccc(N)cc2)CCC(=O)NC1=O (configuration not stated) [Glutethimide, para-amino] | 99
CC[C@@]1([C@@H]2O[C@@H]([C@H]3O[C@@](O)(CO)[C@H](C)C[C@@H]3C)C[C@@H]2C)CC[C@H]([C@]2(C)CC[C@]3(C[C@H](O)[C@@H](C)[C@@H]([C@@H](C)[C@@H](OC)[C@H](C)C(=O)O)O3)O2)O1 [Monensin sodium salt] | 94
CCN(C)C(=O)Oc1cccc([C@H](C)N(C)C)c1 [Rivastigmine] | 100
C[C@]12CC[C@@H]3c4ccc(OC(=O)N(CCCl)CCCl)cc4CC[C@H]3[C@@H]1CC[C@@H]2O [Estramustine] | 104
C[N+]1([O-])[C@@H]2C[C@@H](OC(=O)[C@H](CO)c3ccccc3)C[C@H]1[C@@H]1O[C@@H]12 (some centres not stated) [Scopolamin-N-oxide hydrobromide] | 102
CCN(CC)C(C)C(=O)c1ccccc1 (configuration not stated) [Amfepramone hydrochloride] | 86
Oc1cc(Cl)ccc1Oc1ccc(Cl)cc1Cl [Triclosan] | 21

SMILES | planktonic growth [%]
COc1ccc(CCN2CCC(Nc3nc4ccccc4n3Cc3ccc(F)cc3)CC2)cc1 [Astemizole] | 98
CC(=O)O[C@H]1C[C@H](O[C@H]2[C@@H](O)C[C@H](O[C@H]3[C@@H](O)C[C@H](O[C@H]4CC[C@@]5(C)[C@H](CC[C@@H]6[C@@H]5C[C@@H](O)[C@]5(C)[C@@H](C7=CC(=O)OC7)CC[C@]65O)C4)O[C@@H]3C)O[C@@H]2C)O[C@H](C)[C@H]1O[C@@H]1O[C@H](CO)[C@@H](O)[C@H](O)[C@H]1O [Lanatoside C] | 98
CC(C)(C)NCC(O)c1cc(Cl)c(N)c(Cl)c1 (configuration not stated) [Clenbuterol hydrochloride] | 91
Fc1ccc(C(OCCN2CCN(CCCc3ccccc3)CC2)c2ccc(F)cc2)cc1 | 103
COc1ccc(Cc2nccc3cc(OC)c(OC)cc23)cc1OC [Papaverine hydrochloride] | 105
CCC1(CC)C(=O)C=CNC1=O [Pyrithyldione] | 109
CCN(C(C)=O)c1cccc(-c2ccnc3c(C#N)cnn23)c1 [Zaleplon] | 103
NCCc1c[nH]c2ccc(O)cc12 [Serotonin hydrochloride] | 111
CCC(COC(=O)c1cc(OC)c(OC)c(OC)c1)(c1ccccc1)N(C)C (configuration not stated) [Trimebutine] | 112
C[C@@H]1CC[C@H]2[C@@H](C)C(=O)O[C@@H]3O[C@@]4(C)CC[C@@H]1[C@]32OO4 [Artemisinin] | 73
CCC1(c2cccc(O)c2)CCCCN(C)C1 (configuration not stated) [Meptazinol hydrochloride] | 96
COc1cc([C@@H]2c3cc4c(cc3[C@H](O)[C@H]3COC(=O)[C@H]23)OCO4)cc(OC)c1OC [Podophyllotoxin] | 92
CC(C)C[C@H](CN)CC(=O)O [Pregabalin] | 109
CC(C)(C)NCC(O)c1ccccc1Cl (configuration not stated) [Tulobuterol] | 101
C[C@]12Cc3c[nH]nc3C[C@@H]1CC[C@@H]1[C@@H]2CC[C@@]2(C)[C@H]1CC[C@]2(C)O [Stanozolol] | 92
C[N+]12CCC(CC1)C(OC(=O)C(O)(c1ccccc1)c1ccccc1)C2 (configuration not stated) [Clidinium bromide] | 98
CC(=O)OCC1=C(C(=O)O)N2C(=O)[C@@H](N)[C@H]2SC1 [Cephalosporanic acid, 7-amino] | 99
CO[C@]12C[C@@H](COC(=O)c3cncc(Br)c3)CN(C)[C@@H]1Cc1cn(C)c3cccc2c13 [Nicergoline] | 101
CC(=O)OCC(=O)[C@H]1CC[C@H]2[C@@H]3CC[C@H]4C[C@H](O)CC[C@]4(C)[C@H]3C(=O)C[C@]12C [Alfadolone acetate] | 104
NC(=O)CN1CCCC1=O [Piracetam] | 85
CC(C)c1c(CN(C)C(C)Cc2ccccc2)n(C)n(-c2ccccc2)c1=O (configuration not stated) [Famprofazone] | 97
